# Laboratory results: the supplement of paper PMC10338343
# ± gives the standard deviation. In all, about 5,500 sequences were measured (“pre-steady-state target cleavage rate”: median about 0.1, highest 2% from about 0.64 on). The list shows a part of the results, in another mix than the full data.
# Test system: MIWI (PIWIL1) piRISC loaded with piRNA #2 (30 nt)
# Assay: pre-steady-state target cleavage rate (min^-1); MIWI and MILI are mouse PIWI proteins and EfPiwi is from a freshwater sponge; tags in brackets are library labels; higher = faster piRNA-guided slicing of the target
# Details: guide: piRNA #2 5'p-UUAGGUAACCCAGUAGAUCCAGAGGAAUUC; auxiliary factor: 500 nM mouse GTSF1
# In short: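 In Cleave-'n-Seq, a transcribed, DNA-blocked target RNA library (0.1 nM) was combined with 1 nM active affinity-purified piRISC bearing one synthetic guide, with or without 500 nM GTSF1 partner protein. Reactions ran in HEPES–potassium acetate buffer at 33 °C for 0–8 or 0–960 min. Uncleaved targets were sequenced and normalised to depth and to weakly complementary targets, three trials were pooled, and k3 was capped at 0.0001 min^-1. The pre-steady-state cleavage rate was obtained by fitting a burst-and-steady-state model.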
row,Sequence,pre-steady-state target cleavage rate
1,CUUAACCUCUGGAUACUACUGGGUUACCUAA,0.21 ± 0.029
2,CUAUACCUCUGGAUCUACUGGGAUACCUAA,0.299 ± 0.037
3,CUUAAGGUCUGGAUCUACUGGGAUACCAAA,0.0398 ± 0.016
4,CUUAAGCUCAUGGAUCUACUGGGUUACCUAA,0.166 ± 0.019
5,CUAUUCCUGUGGAUCUACUGGGUUACGUAA,0.47 ± 0.052
6,CUAUUCCUCUGCUACUACUGGGUUACCUAA,0.451 ± 0.039
7,CUUAUCCUCUGGAUCUACUGGGUUACGAAA,0.253 ± 0.05
8,GAAAUCGUCUGGAUCUACUGGGUUACCUAA,0.417 ± 0.064
9,GAAUUCCUCUGGAUCUACUGCGAUACCUAA,0.19 ± 0.044
10,CUUAAGGACUGGAUCUACUGGGUAUACCUAA,0.082 ± 0.05
11,CUUAAGGAGACCUUCUACUGGCGUUACCUAA,0.0131 ± 0.005
12,CUUAAGCUCUGGAUCUACUGGGUAUACCUAA,0.111 ± 0.023
13,CUUAAGGUCUGAAUCUACUGGGUUACCUAA,0.111 ± 0.016
14,CUUAAGGACUCGAUCUACUGGGUUACGUAA,0.13 ± 0.034
15,CUUUUCCUCUGGAUCUUGAGGGUUACCUAA,0.00876 ± 0.0062
16,CUUAUCCUCUGCAUGUACUGGGUUACCUAA,0.383 ± 0.027
17,CUAUACCACUGGAUCUACUGGGUUACCUAA,0.506 ± 0.047
18,CUUAAGCUCUUGAUCUACUGGGUUACCUAA,0.273 ± 0.03
19,GAAUUCCUCUGGAUCUACUGGGUUACCCUAA,0.269 ± 0.078
20,CAAUUCCUCUGGAUCUUCUGGGAUACCUAA,0.226 ± 0.031
21,CAAUUCCUCUGGAUGUUCUGGGUUACCUAA,0.389 ± 0.039
22,CUUAACCUCUGCAUCUAGUGGGUUACCUAA,0.147 ± 0.013
23,CUUAACCUCUGGAUCUAGAGGGUUACCUAA,0.0212 ± 0.0044
24,GAAAUCCUCUGGAUCUACUCGGUUACCUAA,0.0697 ± 0.016

row,Sequence,pre-steady-state target cleavage rate
1,CUUAAGCCUCUGGAUCUACUGGGUUACCUAA,0.169 ± 0.026
2,CUUAUCCUCUGGAUCUACAGGGUUAGCUAA,0.115 ± 0.023
3,CUUUUCCUGUGGAUCUACUGGGUUACCAAA,0.223 ± 0.04
4,GAAUUCCUCUGGAUGUACUGCGUUACCUAA,0.487 ± 0.069
5,CUUAAGGUCUGGAUCUACUGGGUUACCUAA [g2:g23:cont:t1A],0.236 ± 0.031
6,CUUAUCCUCUGAGAUCUACUGGGUUACCUAA,0.33 ± 0.024
7,CAAAUCCUCUGGAUCUACUGGGUAACCUAA,0.23 ± 0.036
8,CUUAAGGAGUGGGUCUACUGGGUUACCUAA,0.0641 ± 0.01
9,CUUAACCACUGGAUCUACUGCGUUACCUAA,0.317 ± 0.037
10,CAAUUCCACUGGAACUACUGGGUUACCUAA,0.408 ± 0.042
11,CUUAACCUCUGGAUCUACAGGGUUACGUAA,0.134 ± 0.017
12,CUAUUUCCUCUGGAUCUACUGGGUUACCUAA,0.385 ± 0.054
13,CUUAAGGAGACGAUCUACACCGUUACCUAA,0.00447 ± 0.0029
14,CUUAAGGACUGGAUCAACUGGGUUACCUUA,0.0459 ± 0.035
15,GAAUUGCUCUGGAUCUACUGGCUUACCUAA,0.0382 ± 0.014
16,CUUAAGGUCGUGGAUCUACUGGGUUACCUAA,0.0811 ± 0.021
17,CUUUUUCUCUGGAUCUACUGGGUUACCUAA,0.169 ± 0.024
18,CUUUUCCUCUGGAUCUACUGGGUUACACUAA,0.496 ± 0.045
19,CUUAAGGAGAGCAUCUACUGCGUUACCUAA,0.00292 ± 0.0029
20,CUUAACCUCUGGAUCUACUGGCUUACCUUA,0.0446 ± 0.0088
21,CUUUUCCUCGGAUCUACUGGGUUACCUAA,0.395 ± 0.074
22,CUUAAGCUCUGGAUCAAGUGGGUUACCUAA,0.00498 ± 0.0043
23,CUAUAGGUCUGGAUCUACUGGGUUACCUAA,0.193 ± 0.029
24,CUUAAGGACUGGAUCUACUGGGUUAACCUAA,0.0999 ± 0.054

row,Sequence,pre-steady-state target cleavage rate
1,GAAUUCCUGUGGAUGUACUGGGUUACCUAA,0.34 ± 0.04
2,CUUAAGGUCUGGAUCUACAGGCUUACCUAA,0.0179 ± 0.0082
3,GAAUUCCUCUGGAUCUUCUGGGUUUCCUAA,0.234 ± 0.049
4,CUUAAGGACUGGAUCUACUGGGGUACCUAA,0.0349 ± 0.018
5,CUAUUCCUCAGGAUCUACUGGGUUACGUAA,0.499 ± 0.073
6,CUAUUCGUCUGGAUCAACUGGGUUACCUAA,0.209 ± 0.026
7,CUUAACCUCUGGAUCUACUGGGUUACCUUAA,0.2 ± 0.025
8,CUUAAGCUCUGGAUCUACUGAGUUACCUAA,0.486 ± 0.044
9,GAAAUCCUCUGGAUCUAGUGGGUUACCUAA,0.0805 ± 0.017
10,CAAUUCCUCUGGAUCUUCUGGCUUACCUAA,0.0168 ± 0.0075
11,CUUAAGGACUGGAUGUACUGGGUUAGCUAA,0.0745 ± 0.045
12,CUUUUACUCUGGAUCUACUGGGUUACCUAA,0.0983 ± 0.018
13,GAAUUCCACUGGAUGUACUGGGUUACCUAA,0.402 ± 0.033
14,CUUAUCGUCUGGAUCUACUGGGUUACCUUA,0.295 ± 0.066
15,CUUAUCGUCUGGAUCUACAGGGUUACCUAA,0.142 ± 0.025
16,CUAUUCCUCUGGAUCUAGUGGGUUAGCUAA,0.0581 ± 0.015
17,CUAUUCCUCUGGAUCAACUGGCUUACCUAA,0.0797 ± 0.015
18,GAAUUCCUCUGGAUCUACUGGGGUUACCUAA,0.0291 ± 0.0067
19,CUUUUGCUCUGGAUCUACUGGGUUAGCUAA,0.385 ± 0.059
20,GAAUUCCUCUGGUUCUAGUGGGUUACCUAA,0.303 ± 0.035
21,CAAUUCCUCUGCUACUACUGGGUUACCUAA,0.557 ± 0.058
22,CUAUACCUCUGGAUCUACAGGGUUACCUAA,0.279 ± 0.038
23,CUUAAGGAGUGGAUCUACGGGGUUACCUAA,0.0113 ± 0.0032
24,CUUAAGGUCUGGAUCUACUGCGUUACCAAA,0.109 ± 0.029
